# From the RNAGym collection of RNA variant scans (doi:10.7554/elife.90254)
# The source gives no read counts; variants with many changes may rest on few reads.
# B1: OR4K15 (parent)
# chain: GUUAACGGUCAUAGGCCAUGGAAACUAGGAGCACCAUUUCGCUGCCAGUGAAGAAAUGAACAAAGAAAAUCUGGGCCAGGCAGGCAUCAAAAGAAAUAGUCUUGCGCUCAACCAGAAAGUCUGUAAUCAUUUUAAGGGUA
# Variants of: B1
# Experiment: self-cleavage, relative activity (ratio to wild type); higher = more cleavage; in vitro, sequencing; the parent is a self-cleaving ribozyme
row,Variant,self-cleavage
1,U19C U39C A67G,1.57
2,U19C A24G A111G,0.08
3,G20A U37A A67U,1.79
4,U19C A56G C61A U139C A140G,1.97
5,A22G A24G A51U,1.19
6,A22C A63G U108C,0.02
7,U19C A24U A33G C81U,0.12
8,G20A A47C A111U,0.06
9,A22G A23G A55G A60G A64U,0.72
10,U19C U49C A60G U100C,2.33
11,A22G A55G A96G,1.23
12,U19C G20U A92G U120C,0.89
13,U19C U43C U87C A114G A117G A126G,0.07
14,G21A A62G U87C,0.54
15,A22G A55U A114G A117G,0.56
16,A22G A23G U43C U124A,0.46
17,A22G A66G C113A,0.04
18,A22C A62G A67G A68G A78G C121U,0.4
19,A22G A24G A55G A59G A92G,0.71
20,U19C G44A U72A,0.24
21,U19C A117G A125G,0.33

row,Variant,self-cleavage
1,G20A A36G A59G A62G A90G,0.89
2,A22G A86G A94G,1.29
3,U19C A66G A116G,0.15
4,A22G G44A A86U,1.92
5,U19C U49A A66G A116G,0.08
6,U19C U43C A140G,1.55
7,U19C A27G A98G A129U,0.17
8,A22G A27U U57C A86G U130C,0.94
9,A22G A63G U120C,1.38
10,A22G A62G U72C A91G,0.2
11,U19C A60G A64G U87A,0.79
12,G21A A23G A33U U37C A90G,0.59
13,G20A U100C A126G,1.52
14,A22G G48A A94G,1.17
15,A22G A62G U102C U131C,0.94
16,A22G C46G U49C C61G,0.44
17,A22G A33U U39C U132C,1.02
18,A22G A51G A89G U132C,1.29
19,U19C A64G A66U,1.45
20,U19C A52G U87C A94G U108C,0.01
21,A22G A23G U49A A54G A64G,1.27

row,Variant,self-cleavage
1,U19C A52G U70C A118G U130A,0.26
2,A22G A59G A60G A117C,0.15
3,A22G A54G A64U U97C A98G,0.75
4,G21A G41A U49C,1.62
5,U19C A55G A64G A91G U102C U108C U127C,0
6,A22G A82G A125G,0.07
7,A22G G44A A56U,1.03
8,A22G A27G A62G,1.48
9,A22G A56G G74U,0.21
10,U19C A23G C42A A89G,0.21
11,A22G A78G A82G U87C A114C,0.03
12,A22G A69G A111G U122C,0.04
13,A22G G44A U49C A62G A92G A94G U100C,1.65
14,G20A A52G A86G C88U U130A,0.86
15,U19C A63G U87C,1.61
16,G20U A23G A47G U57C U87C,0.71
17,U19C A23G A52G U132A,0.35
18,A22C G44C A114G,0.76
19,A22G A60G A114U A118G,0.02
20,U19C A47G A94G,1.45
21,U19C A27G A51G G79A U120A U132A,0.08

row,Variant,self-cleavage
1,U19C A51G U72C U87C U122C U132C,0.04
2,U19C C32U U43C U102C A118G,1.67
3,U19C A24C A68G A116G,0.13
4,A22G A47U A111G U122C,0.01
5,U19C A62G A94U,0.39
6,A22G G44A A52G A96G,1.69
7,A22C A78U U100C A116G,0.65
8,U19C A98G U122C,0.27
9,U19C A23G A59G A63G,0.46
10,A22G A51G U87C,1.28
11,A22G A92G A114U,0.05
12,U19C A91G A110G,0.14
13,U19C A114U A126G,0.11
14,U19C A92G U120G A125G,0.47
15,G20A A82U G106A U132C,0
16,A22G A52G U124C,1.07
17,U19C U57C A117G,0.11
18,A22G A23G C61G A92G U103C U108C U124C,0
19,U19C G20A U38C A82G A89U A94G U127C,0.24
20,U19G U37C U57C,1.02
